First the molecules themselves.
B1: Caulobacter ParB omega fusion; a variant is named by its letters at X, in order, B8GW30 (parent)
chain: MESVVVGEPGMSEGRRGLGRGLSALLGEVDAAPAQAPGEQLGGSREAPIEILQRNPDQPRRTFREEDLEDLSNSIREKGVLQPILVRPSPDTAGEYQIVAGERAWRAAQRAGLKTVPIMVRELDDLAVLEIGIIENVQRADLNVLEEALSYKVLMEKFERTQENIAQTIGKSXSHVANXMRLLXLPDEVQSYLVSGELTAXHARAIAAAADPVALAKQIIEGGLSVRETEALARKAPNLSAGKSKGGRPPRVKDTDTQALESDLSSVLGLDVSIDHRGSTGTLTITYATLEQLDDLCNRLTRGI

In all, about 81,000 sequences were measured (“one-hybrid fitness for binding parS DNA”: median about -0.17, highest 2% from about 0.51 on). The list shows a part of the results.

Variants of B1 are the subject of this assay. Briefly: one-hybrid fitness for binding parS DNA (scaled: cognate 1, non-cognate 0); higher = stronger binding. The note with it: with parS DNA site. Put shortly: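 Pre- and post-selection plasmids were Illumina-sequenced, three replicate libraries were pooled, and any variant with under 10 reads was removed. The libraries were Caulobacter ParB with four specificity codons randomised, selected in E. coli USO through a HIS3 reporter whose site is 19 bp from the promoter. Cells grew 48 hours at 37°C on M9 without histidine, with 0.1 mM IPTG and 5 mM 3-AT. Fitness is the log change in variant-to-wild-type read ratio, rescaled against cognate and non-cognate.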
As to HARY, the “one-hybrid fitness for binding parS DNA” value is no more than 0.2. For PPKY, the “one-hybrid fitness for binding parS DNA” value was no more than 0.2. To RMIY belongs 0.467; to DTNF, no more than 0.2; to TMVR, no more than 0.2.

Turning to CCNR, the “one-hybrid fitness for binding parS DNA” value was no more than 0.2.

For NSQS, the “one-hybrid fitness for binding parS DNA” value was no more than 0.2. As for LRSK, the figure is no more than 0.2. To IAIT belongs no more than 0.2. As for GHPK, the figure is no more than 0.2. With GMKN, the “one-hybrid fitness for binding parS DNA” value is no more than 0.2. To QATV belongs no more than 0.2; to HYGT, no more than 0.2; to GMRT, no more than 0.2. As for LLAP, the figure is no more than 0.2; as for ATMG, no more than 0.2.

With SEVS, the “one-hybrid fitness for binding parS DNA” value is no more than 0.2. With TMNV, the “one-hybrid fitness for binding parS DNA” value was no more than 0.2. As for DPQG, the figure is no more than 0.2. To NMHC belongs no more than 0.2; to DRSL, no more than 0.2; to GTLD, no more than 0.2.

Take ADAG: the “one-hybrid fitness for binding parS DNA” value was no more than 0.2. Regarding DCLT, the “one-hybrid fitness for binding parS DNA” value is no more than 0.2. As for YDCS, the figure is no more than 0.2; as for KHLK, no more than 0.2; as for YGAY, no more than 0.2. To QSIQ belongs no more than 0.2; to PWRC, no more than 0.2. As to DDNS, the “one-hybrid fitness for binding parS DNA” value was no more than 0.2. To HRGG belongs 0.276; to IVIT, no more than 0.2; to VLHK, no more than 0.2. In the case of HSSC, the “one-hybrid fitness for binding parS DNA” value was no more than 0.2. As for SPPK, the figure is no more than 0.2; as for AQGV, no more than 0.2; as for GYMS, no more than 0.2. On to GVFL, for which the “one-hybrid fitness for binding parS DNA” value was no more than 0.2. As for ETLA, the figure is no more than 0.2. To IQNI belongs no more than 0.2; to YENT, no more than 0.2; to CKSV, no more than 0.2. Turning to YEMA, the “one-hybrid fitness for binding parS DNA” value was no more than 0.2. To LNIY belongs no more than 0.2; to AAKN, no more than 0.2. As for QHPP, the figure is 0.294; as for LAIN, no more than 0.2. To WHSI belongs no more than 0.2; to HSLN, no more than 0.2. With TANT, the “one-hybrid fitness for binding parS DNA” value was no more than 0.2. As for NEPS, the figure is no more than 0.2. As for CGCN, the figure is 0.296.

On to WHQV, for which the “one-hybrid fitness for binding parS DNA” value was no more than 0.2.

On to LCLV, for which the “one-hybrid fitness for binding parS DNA” value was no more than 0.2. For the variant TMTF, the “one-hybrid fitness for binding parS DNA” value was no more than 0.2. For the variant ACHT, the “one-hybrid fitness for binding parS DNA” value is no more than 0.2. In the case of ESNM, the “one-hybrid fitness for binding parS DNA” value is no more than 0.2. To RYNM belongs 0.323; to AQSC, no more than 0.2; to PADP, no more than 0.2.

As to VRGG, the “one-hybrid fitness for binding parS DNA” value was no more than 0.2. As for YGAG, the figure is no more than 0.2; as for EFHR, no more than 0.2. To NSFQ belongs no more than 0.2; to DTGC, no more than 0.2. Regarding PASF, the “one-hybrid fitness for binding parS DNA” value was no more than 0.2. To STAH belongs no more than 0.2; to SNST, no more than 0.2; to NIQR, no more than 0.2. As for YSAY, the figure is no more than 0.2; as for QCFV, no more than 0.2.

With VKDS, the “one-hybrid fitness for binding parS DNA” value is no more than 0.2. As for MSKS, the figure is no more than 0.2; as for PSGN, no more than 0.2; as for RLHH, 0.204. On to LVIT, for which the “one-hybrid fitness for binding parS DNA” value is no more than 0.2. To EIYG belongs no more than 0.2; to RVDC, 0.846. To QVEM belongs no more than 0.2. As for YRDL, the figure is no more than 0.2. In the case of AHYG, the “one-hybrid fitness for binding parS DNA” value is no more than 0.2.

With QLTG, the “one-hybrid fitness for binding parS DNA” value was no more than 0.2. As for TCPT, the figure is no more than 0.2.

Regarding TGNK, the “one-hybrid fitness for binding parS DNA” value is no more than 0.2.

For WKYS, the “one-hybrid fitness for binding parS DNA” value is no more than 0.2. As for CTER, the “one-hybrid fitness for binding parS DNA” value is no more than 0.2. In the case of TMGL, the “one-hybrid fitness for binding parS DNA” value was no more than 0.2. To AGAF belongs no more than 0.2; to RIHD, no more than 0.2. To QLFR belongs no more than 0.2; to RKWY, 0.393. As for ASDR, the figure is no more than 0.2; as for CRHG, no more than 0.2; as for KQTI, no more than 0.2.

As to LPVC, the “one-hybrid fitness for binding parS DNA” value was no more than 0.2.

Regarding EESA, the “one-hybrid fitness for binding parS DNA” value was no more than 0.2. In the case of NYQG, the “one-hybrid fitness for binding parS DNA” value was no more than 0.2. As for QQHN, the figure is no more than 0.2; as for HDPI, no more than 0.2. As for KHVS, the figure is no more than 0.2; as for KRVQ, no more than 0.2; as for FSYW, no more than 0.2.

Regarding HDWM, the “one-hybrid fitness for binding parS DNA” value is no more than 0.2. To CPDW belongs no more than 0.2. On to CYNA, for which the “one-hybrid fitness for binding parS DNA” value is no more than 0.2.

For EDSR, the “one-hybrid fitness for binding parS DNA” value is no more than 0.2.

As to EPIF, the “one-hybrid fitness for binding parS DNA” value was no more than 0.2.

As to RLNR, the “one-hybrid fitness for binding parS DNA” value is no more than 0.2.

With IIHD, the “one-hybrid fitness for binding parS DNA” value is no more than 0.2. To RDQV belongs no more than 0.2. To LTEL belongs no more than 0.2; to QIEP, no more than 0.2. Turning to DMAT, the “one-hybrid fitness for binding parS DNA” value is no more than 0.2. Consider INME, for which the “one-hybrid fitness for binding parS DNA” value is no more than 0.2. For the variant APCV, the “one-hybrid fitness for binding parS DNA” value was no more than 0.2.

As to REQN, the “one-hybrid fitness for binding parS DNA” value was no more than 0.2. As for QALH, the figure is no more than 0.2; as for LRLL, no more than 0.2. For LLAY, the “one-hybrid fitness for binding parS DNA” value is no more than 0.2. As for IIQR, the figure is no more than 0.2; as for HCFY, no more than 0.2. Take SAST: the “one-hybrid fitness for binding parS DNA” value was no more than 0.2. As to TLFQ, the “one-hybrid fitness for binding parS DNA” value was no more than 0.2. As for DYKG, the figure is no more than 0.2; as for SWNS, no more than 0.2; as for HPST, no more than 0.2.

With NQPV, the “one-hybrid fitness for binding parS DNA” value is no more than 0.2. As for LAMR, the figure is no more than 0.2; as for LFPC, no more than 0.2; as for GITC, no more than 0.2.

Regarding TQAL, the “one-hybrid fitness for binding parS DNA” value is no more than 0.2. As for NINC, the “one-hybrid fitness for binding parS DNA” value was no more than 0.2.

For YIGS, the “one-hybrid fitness for binding parS DNA” value was no more than 0.2.

In the case of HMPT, the “one-hybrid fitness for binding parS DNA” value was no more than 0.2.

For QMDY, the “one-hybrid fitness for binding parS DNA” value is no more than 0.2. To NDQS belongs no more than 0.2; to GPPQ, no more than 0.2; to RDTM, no more than 0.2.

For the variant KRVK, the “one-hybrid fitness for binding parS DNA” value was no more than 0.2. To LKMH belongs no more than 0.2; to YHKT, no more than 0.2. To AKKP belongs no more than 0.2. For the variant SLCC, the “one-hybrid fitness for binding parS DNA” value was no more than 0.2.

Consider TRDT, for which the “one-hybrid fitness for binding parS DNA” value is no more than 0.2. To KTQS belongs no more than 0.2; to GKVR, no more than 0.2; to PDGT, no more than 0.2. As for LLMR, the figure is no more than 0.2; as for YEHY, no more than 0.2. To VSNC belongs no more than 0.2; to MAWW, no more than 0.2. For the variant CNYG, the “one-hybrid fitness for binding parS DNA” value is no more than 0.2. To QQWS belongs no more than 0.2.

The values above are taken from a collection of fitness landscapes (doi:10.1016/j.celrep.2020.107928).
